In publication PMC12820563, “FoxP3 forms a head-to-head dimer in vivo and stabilizes its multimerization on adjacent microsatellites”:
Some of the results follow.

Target: T1, MBP-FoxP1dN (Mus musculus, UniProt P58462 326-579)
T1 sequence: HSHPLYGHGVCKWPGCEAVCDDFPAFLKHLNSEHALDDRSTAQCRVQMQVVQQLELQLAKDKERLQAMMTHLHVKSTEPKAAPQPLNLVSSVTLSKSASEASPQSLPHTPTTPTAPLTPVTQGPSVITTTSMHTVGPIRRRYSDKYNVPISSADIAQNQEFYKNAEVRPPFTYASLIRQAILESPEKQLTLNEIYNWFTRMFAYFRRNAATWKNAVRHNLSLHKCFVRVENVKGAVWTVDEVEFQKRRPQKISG
Assay: PD-seq (MBP pull-down with sequencing); 20 mM Tris-HCl pH 7.5, 100 mM NaCl, 1.5 mM MgCl2, 0.4 uM protein, 0.1 uM dsDNA library, 30 min, room temperature, amylose pull-down; high values mean tight binding
Conditions: protein: recombinant; tags: His6-MBP; chain copies: 2; dsDNA, one strand shown
Method in brief: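 His6-MBP-tagged mouse FoxP3 or FoxP1 fragment lacking the N-terminus, expressed in E. coli, was mixed at 0.4 µM with 0.1 µM Klenow-filled double-stranded degenerate DNA library. Incubation was 30 min at room temperature in Tris pH 7.5 buffer with NaCl and MgCl2. Complexes were caught on amylose resin and washed three times; DNA was released with proteinase K, PCR-barcoded and Illumina-sequenced. Binding is reads-per-million enrichment, pull-down over input, with replicates pooled.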

Sequence	binding signal
GATGATTGTTCTCCCAGCTGATGAATTACGGCTCTCGAGTAAACAAATTTTCCTAATCTTTCTGTTCAAGCGCCATCTAC	0.947 RPM ratio (pull-down/input)
GATGATTGTTCTCCCAGCTGATGAATTAAAGGGATCGAGTAAACAAATTTTCCTAATCTTTCTGTTCAAGCGCCATCTAC	0.92 RPM ratio (pull-down/input)
GATGATTGTTCTCCCAGCTGATGAATTTACCCTCTCGAGTAAACAAATTTTCCTAATCTTTCTGTTCAAGCGCCATCTAC	1.06 RPM ratio (pull-down/input)
GATGATTGTTCTCCCAGCTGATGAATTGCCTACTTCGAGTAAACAAATTTTCCTAATCTTTCTGTTCAAGCGCCATCTAC	0.913 RPM ratio (pull-down/input)
GATGATTGTTCTCCCAGCTGATGAATTACGTTGATCGAGTAAACAAATTTTCCTAATCTTTCTGTTCAAGCGCCATCTAC	1.16 RPM ratio (pull-down/input)
GATGATTGTTCTCCCAGCTGATGAATTCCAACGATCGAGTAAACAAATTTTCCTAATCTTTCTGTTCAAGCGCCATCTAC	0.859 RPM ratio (pull-down/input)
GATGATTGTTCTCCCAGCTGATGAATTCCGCTAGTCGAGTAAACAAATTTTCCTAATCTTTCTGTTCAAGCGCCATCTAC	0.843 RPM ratio (pull-down/input)
GATGATTGTTCTCCCAGCTGATGAATTGCGATACTCGAGTAAACAAATTTTCCTAATCTTTCTGTTCAAGCGCCATCTAC	1.09 RPM ratio (pull-down/input)
GATGATTGTTCTCCCAGCTGATGAATTCAGATGTTCGAGTAAACAAATTTTCCTAATCTTTCTGTTCAAGCGCCATCTAC	0.957 RPM ratio (pull-down/input)
GATGATTGTTCTCCCAGCTGATGAATTCAGGCATTCGAGTAAACAAATTTTCCTAATCTTTCTGTTCAAGCGCCATCTAC	1.01 RPM ratio (pull-down/input)
GATGATTGTTCTCCCAGCTGATGAATTTTGCTCGTCGAGTAAACAAATTTTCCTAATCTTTCTGTTCAAGCGCCATCTAC	0.898 RPM ratio (pull-down/input)
GATGATTGTTCTCCCAGCTGATGAATTCCGCTTGTCGAGTAAACAAATTTTCCTAATCTTTCTGTTCAAGCGCCATCTAC	0.846 RPM ratio (pull-down/input)
GATGATTGTTCTCCCAGCTGATGAATTGATGATATCGAGTAAACAAATTTTCCTAATCTTTCTGTTCAAGCGCCATCTAC	1.21 RPM ratio (pull-down/input)
GATGATTGTTCTCCCAGCTGATGAATTGCACATGTCGAGTAAACAAATTTTCCTAATCTTTCTGTTCAAGCGCCATCTAC	1.34 RPM ratio (pull-down/input)
GATGATTGTTCTCCCAGCTGATGAATTATCGCCGTCGAGTAAACAAATTTTCCTAATCTTTCTGTTCAAGCGCCATCTAC	0.983 RPM ratio (pull-down/input)
GATGATTGTTCTCCCAGCTGATGAATTCCATTGTTCGAGTAAACAAATTTTCCTAATCTTTCTGTTCAAGCGCCATCTAC	0.957 RPM ratio (pull-down/input)
GATGATTGTTCTCCCAGCTGATGAATTGCTGCACTCGAGTAAACAAATTTTCCTAATCTTTCTGTTCAAGCGCCATCTAC	1.06 RPM ratio (pull-down/input)
GATGATTGTTCTCCCAGCTGATGAATTGACTATGTCGAGTAAACAAATTTTCCTAATCTTTCTGTTCAAGCGCCATCTAC	1.07 RPM ratio (pull-down/input)
GATGATTGTTCTCCCAGCTGATGAATTTCAATCATCGAGTAAACAAATTTTCCTAATCTTTCTGTTCAAGCGCCATCTAC	1.01 RPM ratio (pull-down/input)
GATGATTGTTCTCCCAGCTGATGAATTGCGCACCTCGAGTAAACAAATTTTCCTAATCTTTCTGTTCAAGCGCCATCTAC	1.05 RPM ratio (pull-down/input)

Sequence	binding signal
GATGATTGTTCTCCCAGCTGATGAATTTTTAAGCTCGAGTAAACAAATTTTCCTAATCTTTCTGTTCAAGCGCCATCTAC	0.876 RPM ratio (pull-down/input)
GATGATTGTTCTCCCAGCTGATGAATTGAAATTCTCGAGTAAACAAATTTTCCTAATCTTTCTGTTCAAGCGCCATCTAC	0.884 RPM ratio (pull-down/input)
GATGATTGTTCTCCCAGCTGATGAATTGCTAGTGTCGAGTAAACAAATTTTCCTAATCTTTCTGTTCAAGCGCCATCTAC	1.09 RPM ratio (pull-down/input)
GATGATTGTTCTCCCAGCTGATGAATTTCTTGTGTCGAGTAAACAAATTTTCCTAATCTTTCTGTTCAAGCGCCATCTAC	1 RPM ratio (pull-down/input)
GATGATTGTTCTCCCAGCTGATGAATTTCTTAGCTCGAGTAAACAAATTTTCCTAATCTTTCTGTTCAAGCGCCATCTAC	0.774 RPM ratio (pull-down/input)
GATGATTGTTCTCCCAGCTGATGAATTTGACTACTCGAGTAAACAAATTTTCCTAATCTTTCTGTTCAAGCGCCATCTAC	0.836 RPM ratio (pull-down/input)
GATGATTGTTCTCCCAGCTGATGAATTCGATCAGTCGAGTAAACAAATTTTCCTAATCTTTCTGTTCAAGCGCCATCTAC	0.779 RPM ratio (pull-down/input)
GATGATTGTTCTCCCAGCTGATGAATTAGGTTTTTCGAGTAAACAAATTTTCCTAATCTTTCTGTTCAAGCGCCATCTAC	1 RPM ratio (pull-down/input)
GATGATTGTTCTCCCAGCTGATGAATTGCAATTCTCGAGTAAACAAATTTTCCTAATCTTTCTGTTCAAGCGCCATCTAC	1.38 RPM ratio (pull-down/input)
GATGATTGTTCTCCCAGCTGATGAATTTGCGGCTTCGAGTAAACAAATTTTCCTAATCTTTCTGTTCAAGCGCCATCTAC	0.962 RPM ratio (pull-down/input)
GATGATTGTTCTCCCAGCTGATGAATTTCGTCTGTCGAGTAAACAAATTTTCCTAATCTTTCTGTTCAAGCGCCATCTAC	0.863 RPM ratio (pull-down/input)
GATGATTGTTCTCCCAGCTGATGAATTATCGCGTTCGAGTAAACAAATTTTCCTAATCTTTCTGTTCAAGCGCCATCTAC	1.07 RPM ratio (pull-down/input)
GATGATTGTTCTCCCAGCTGATGAATTGTTGTTCTCGAGTAAACAAATTTTCCTAATCTTTCTGTTCAAGCGCCATCTAC	2.58 RPM ratio (pull-down/input)
GATGATTGTTCTCCCAGCTGATGAATTTTTGGTCTCGAGTAAACAAATTTTCCTAATCTTTCTGTTCAAGCGCCATCTAC	0.878 RPM ratio (pull-down/input)
GATGATTGTTCTCCCAGCTGATGAATTAATCCAGTCGAGTAAACAAATTTTCCTAATCTTTCTGTTCAAGCGCCATCTAC	0.858 RPM ratio (pull-down/input)
GATGATTGTTCTCCCAGCTGATGAATTCGTCGGATCGAGTAAACAAATTTTCCTAATCTTTCTGTTCAAGCGCCATCTAC	0.841 RPM ratio (pull-down/input)
GATGATTGTTCTCCCAGCTGATGAATTCGATATTTCGAGTAAACAAATTTTCCTAATCTTTCTGTTCAAGCGCCATCTAC	0.936 RPM ratio (pull-down/input)
GATGATTGTTCTCCCAGCTGATGAATTCGGTACTTCGAGTAAACAAATTTTCCTAATCTTTCTGTTCAAGCGCCATCTAC	0.918 RPM ratio (pull-down/input)
GATGATTGTTCTCCCAGCTGATGAATTCGCTTTTTCGAGTAAACAAATTTTCCTAATCTTTCTGTTCAAGCGCCATCTAC	0.922 RPM ratio (pull-down/input)
GATGATTGTTCTCCCAGCTGATGAATTAAAGCCCTCGAGTAAACAAATTTTCCTAATCTTTCTGTTCAAGCGCCATCTAC	0.831 RPM ratio (pull-down/input)
